# Measurements published in the supplement of paper PMC8728848.
# The other results are listed elsewhere or left out.
# B1: OGAN (protein)
# chain: MVQKESQATLEERESELSSNPAASAGASLEPPAAPAPGEDNPAGAGGAAVAGAAGGARRFLCGVVEGFYGRPWVMEQRKELFRRLQKWELNTYLYAPKDDYKHRMFWREMYSVEEAEQLMTLISAAREYEIEFIYAISPGLDITFSNPKEVSTLKRKLDQVSQFGCRSFALLFNDIDHNMCAADKEVFSSFAHAQVSITNEIYQYLGEPETFLFCPTEYCGTFCYPNVSQSPYLRTVGEKLLPGIEVLWTGPKVVSKEIPVESIEEVSKIIKRAPVIWDNIHANDYDQKRLFLGPYKGRSTELIPRLKGVLTNPNCEFEANYVAIHTLATWYKSNMNGVRKDVVMTDSEDSTVSIQIKLENEGSDEDIETDVLYSPQMALKLALTEWLQEFGVPHQY
# Columns and labels:
# Assay in all cases: glycan array binding signal (z-score within array); higher = stronger binding
# Settings in all cases: glycan notation: IUPAC condensed, linker removed
# [1] = target: Fuc(a1-2)Gal(b1-4)GlcNAc(b1-3)Gal(b1-4)GlcNAc(b1-3)Gal(b1-4)GlcNAc
# In short: (§1)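 Negative Z-scores can be read as non-binding. The Z-score is calculated within each array and then averaged across arrays of one protein sequence at different concentrations or buffers and across linkers. Arrays, 3228 in all, were curated from the Consortium for Functional Glycomics database and kept only where the protein sequence was available.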
# [2] = target: Fuc(a1-2)Gal(b1-4)GlcNAc(b1-3)GalNAc
# In short: as §1
# [3] = target: Fuc(a1-2)Gal(b1-4)GlcNAc(b1-3)[Fuc(a1-2)Gal(b1-4)GlcNAc(b1-6)]GalNAc
# In short: as §1
# [4] = target: Fuc(a1-2)Gal(b1-4)GlcNAc(b1-3)[Fuc(a1-3)[Gal(b1-4)]GlcNAc(b1-6)]Gal(b1-4)Glc
# In short: as §1
# [5] = target: Fuc(a1-2)Gal(b1-4)GlcNAc(b1-6)GalNAc
# In short: as §1
# [6] = target: Fuc(a1-2)Gal(b1-4)GlcNAc6S
# In short: as §1
# [7] = target: Fuc(a1-2)Gal(b1-4)[Fuc(a1-3)]GlcNAc
# In short: as §1
# [8] = target: Fuc(a1-2)Gal(b1-4)[Fuc(a1-3)]GlcNAc(b1-2)Man(a1-3)[Fuc(a1-2)Gal(b1-4)[Fuc(a1-3)]GlcNAc(b1-2)Man(a1-6)]Man(b1-4)GlcNAc(b1-4)[Fuc(a1-6)]GlcNAc
# In short: as §1
# [9] = target: Fuc(a1-2)Gal(b1-4)[Fuc(a1-3)]GlcNAc(b1-2)[Fuc(a1-2)Gal(b1-4)[Fuc(a1-3)]GlcNAc(b1-4)]Man(a1-3)[Fuc(a1-2)Gal(b1-4)[Fuc(a1-3)]GlcNAc(b1-2)Man(a1-6)]Man(b1-4)GlcNAc(b1-4)GlcNAc
# In short: as §1
# [10] = target: Fuc(a1-2)Gal(b1-4)[Fuc(a1-3)]GlcNAc(b1-3)Gal(b1-4)[Fuc(a1-3)]GlcNAc
# In short: as §1
# [11] = target: Fuc(a1-2)Gal(b1-4)[Fuc(a1-3)]GlcNAc(b1-3)Gal(b1-4)[Fuc(a1-3)]GlcNAc(b1-3)Gal(b1-4)[Fuc(a1-3)]GlcNAc
# In short: as §1
# [12] = target: Fuc(a1-2)Gal(b1-4)[Fuc(a1-3)]GlcNAc(b1-3)GalNAc
# In short: as §1
# [13] = target: Fuc(a1-2)Gal(b1-4)[Fuc(a1-3)]GlcNAc(b1-3)[Neu5Ac(a2-6)Gal(b1-4)GlcNAc(b1-6)]Gal(b1-4)Glc
# In short: as §1
# [14] = target: Fuc(a1-2)Gal3S(b1-4)GlcNAc
# In short: as §1
# [15] = target: Fuc(a1-2)Gal6S(b1-3)GlcNAc
# In short: as §1
# [16] = target: Fuc(a1-2)Gal6S(b1-3)GlcNAc6S
# In short: as §1
# Fuc(a1-2)Gal6S(b1-4)Glc = target: Fuc(a1-2)Gal6S(b1-4)Glc
# In short: as §1
# [17] = target: Fuc(a1-2)Gal6S(b1-4)Glc6S
# In short: as §1
# Fuc(a1-2)[Gal(a1-3)]Gal = target: Fuc(a1-2)[Gal(a1-3)]Gal
# In short: as §1
# [18] = target: Fuc(a1-2)[Gal(a1-3)]Gal(b1-3)GalNAc
# In short: as §1
# [19] = target: Fuc(a1-2)[Gal(a1-3)]Gal(b1-3)GalNAc(b1-3)Gal(a1-4)Gal(b1-4)Glc
# In short: as §1
# [20] = target: Fuc(a1-2)[Gal(a1-3)]Gal(b1-3)GlcNAc
# In short: as §1
# [21] = target: Fuc(a1-2)[Gal(a1-3)]Gal(b1-3)GlcNAc(b1-2)Man(a1-3)[Fuc(a1-2)[Gal(a1-3)]Gal(b1-3)GlcNAc(b1-2)Man(a1-6)]Man(b1-4)GlcNAc(b1-4)GlcNAc
# In short: as §1
# [22] = target: Fuc(a1-2)[Gal(a1-3)]Gal(b1-3)GlcNAc(b1-2)Man(a1-3)[Fuc(a1-2)[Gal(a1-3)]Gal(b1-3)GlcNAc(b1-2)Man(a1-6)]Man(b1-4)GlcNAc(b1-4)[Fuc(a1-6)]GlcNAc
# In short: as §1
# [23] = target: Fuc(a1-2)[Gal(a1-3)]Gal(b1-3)GlcNAc(b1-3)GalNAc
# In short: as §1
# [24] = target: Fuc(a1-2)[Gal(a1-3)]Gal(b1-3)GlcNAc(b1-6)GalNAc
# In short: as §1
# [25] = target: Fuc(a1-2)[Gal(a1-3)]Gal(b1-4)Glc
# In short: as §1
# [26] = target: Fuc(a1-2)[Gal(a1-3)]Gal(b1-4)GlcNAc
# In short: as §1
# [27] = target: Fuc(a1-2)[Gal(a1-3)]Gal(b1-4)GlcNAc(b1-2)Man
# In short: as §1
# [28] = target: Fuc(a1-2)[Gal(a1-3)]Gal(b1-4)GlcNAc(b1-2)Man(a1-3)[Fuc(a1-2)[Gal(a1-3)]Gal(b1-4)GlcNAc(b1-2)Man(a1-6)]Man(b1-4)GlcNAc(b1-4)GlcNAc
# In short: as §1
binder,measurement,setting,value
B1,glycan array binding signal (z-score),[1],-0.047
same,glycan array binding signal (z-score),[2],-0.04
same,glycan array binding signal (z-score),[3],-0.036
same,glycan array binding signal (z-score),[4],-0.081
same,glycan array binding signal (z-score),[5],-0.084
same,glycan array binding signal (z-score),[6],-0.096
same,glycan array binding signal (z-score),[7],-0.061
same,glycan array binding signal (z-score),[8],-0.067
same,glycan array binding signal (z-score),[9],-0.065
same,glycan array binding signal (z-score),[10],-0.005
same,glycan array binding signal (z-score),[11],-0.016
same,glycan array binding signal (z-score),[12],-0.065
same,glycan array binding signal (z-score),[13],-0.062
same,glycan array binding signal (z-score),[14],-0.022
same,glycan array binding signal (z-score),[15],-0.094
same,glycan array binding signal (z-score),[16],0.263
same,glycan array binding signal (z-score),Fuc(a1-2)Gal6S(b1-4)Glc,-0.071
same,glycan array binding signal (z-score),[17],-0.041
same,glycan array binding signal (z-score),Fuc(a1-2)[Gal(a1-3)]Gal,-0.035
same,glycan array binding signal (z-score),[18],0.104
same,glycan array binding signal (z-score),[19],-0.095
same,glycan array binding signal (z-score),[20],-0.071
same,glycan array binding signal (z-score),[21],-0.081
same,glycan array binding signal (z-score),[22],-0.072
same,glycan array binding signal (z-score),[23],-0.049
same,glycan array binding signal (z-score),[24],-0.062
same,glycan array binding signal (z-score),[25],-0.068
same,glycan array binding signal (z-score),[26],-0.076
same,glycan array binding signal (z-score),[27],-0.067
same,glycan array binding signal (z-score),[28],-0.027
